From PubChem BioAssay AID463173 (ICCB-Longwood Screening Facility, Harvard Medical School, 2010)
The campaign covered roughly 52,000 compounds. About 1,700 (3.3%) were called active. No stated cut-off is given here; in the data, active means survival mostly below about 52% (no sharp cut-off); inactive means mostly above about 56%. This is one part of the list.

What follows are compounds tested on Wild type (assay: growth inhibition of S. aureus wild type versus tarO mutant, primary screen, teichoic acid synthesis inhibitors, RN4220, OD600 (AID 463173)). Conditions: S. aureus RN4220 wild type/DeltatarO growth, OD600, 18 h, hits give low values, screened at 18.75 µg/mL (by protocol).

Row | SMILES | survival
1 | Cc1ccc(-n2nc(C(=O)N(C)Cc3ccccc3)c3c4ccccc4n(C)c3c2=O)cc1 | inactive: 116%
2 | NC(=O)C1CCN(C(=O)COc2ccc(Cl)cc2Cl)CC1 | inactive: 104%
3 | Cc1ccc(C(=O)N(c2ccc(C)cc2)S(=O)(=O)c2ccc(Cl)cc2)cc1 | inactive: 73%
4 | O=c1c2ccccc2n2c(-c3ccccc3F)nnc2n1CCc1ccccc1 | inactive: 78%
5 | COc1cc(OC)c(N(C)C(=O)c2cc3c(=O)oc4ccccc4c3s2)cc1Cl | inactive: 66%
6 | Cc1ccc(-n2c(=O)c3c(c4cc(C)ccc4n3C)n(Cc3ccc(F)cc3)c2=O)cc1 | inactive: 136%
7 | CCOC(=O)C1=NN(C(=O)COc2ccccc2)C(O)(c2ccc(Br)cc2)C1 (stereo unspecified) | inactive: 113%
8 | Cc1ccc(NC(=O)C(Cc2ccccc2)N2Cc3ccccc3C2=O)cc1Cl (stereo unspecified) | inactive: 98%
9 | CCN(C(=O)c1c(C)oc2ncn(CC(C)C)c(=O)c12)c1cccc(Cl)c1 | inactive: 63%
10 | COC(=O)c1cn(CC(=O)Nc2ccc(OC)cc2)c2ccccc12 | inactive: 92%
11 | CCCCNC(=O)CCn1c(=O)c2cccn2c2cccnc21 | inactive: 108%
12 | Cc1oc(-c2ccc(C(=O)NCc3ccccc3Cl)cc2)nc1CN1CCc2ccccc21 | inactive: 67%
13 | CCCn1c(CCC(=O)Nc2ccc(C)c(Cl)c2)nc2cccnc21 | inactive: 84%
14 | COc1ccc(C)cc1NC(=O)c1cc(S(=O)(=O)N2CCc3ccccc3C2)ccc1F | inactive: 75%
15 | CCC1=C(c2ccc(C)cc2)S(=O)(=O)N=C1N1CCC(C(=O)NCCc2ccc(Cl)cc2)CC1 | inactive: 77%
16 | O=C(CC1N=C2c3ccccc3N=C(SCc3cccc(Cl)c3)N2C1=O)NCCc1ccccc1 (stereo unspecified) | inactive: 126%
17 | Cc1ccc(S(=O)(=O)C(CNC(=O)C(=O)NCCc2ccc(Cl)cc2)c2cccs2)cc1 (stereo unspecified) | inactive: 71%
18 | O=C(Cn1c(=O)nc(-c2ccccc2)c2cc(Cl)ccc21)NCc1ccc(Cl)cc1 | inactive: 45%
19 | CCCS(=O)(=O)N1CC(=O)N(c2ccc(C)cc2C)C(C)(C(=O)NC2CCCCCC2)C1 (stereo unspecified) | inactive: 76%
20 | O=C(Nc1cnn(Cc2ccc(Cl)cc2Cl)c1)c1noc2c1CCc1ccccc1-2 | inactive: 81%
21 | COc1ccc(C(CC(=O)Nc2cc(OC)c(OC)c(OC)c2)N2Cc3ccccc3C2=O)cc1 (stereo unspecified) | inactive: 65%
22 | COc1ccc(CCNS(=O)(=O)c2cc(-c3onc(C)c3C)ccc2OC)cc1OC | active: -3%
23 | CCOc1ccc(CCNC(=O)c2ccc3c(c2)N(Cc2ccccc2F)C(=O)c2ccccc2S3=O)cc1OCC (stereo unspecified) | inactive: 84%

Row | SMILES | survival
24 | O=C(CCS(=O)(=O)c1cc2c3c(c1)CCN3C(=O)CC2)Nc1cccc(Br)c1 | inactive: 92%
25 | O=C(COCc1cc(-c2ccc3c(c2)OCO3)on1)Nc1cc(C(F)(F)F)ccc1Cl | inactive: 130%
26 | Cc1cc2c(cc1S(=O)(=O)CCC(=O)N1CCCCC1C)OCC(=O)N2 (stereo unspecified) | inactive: 85%
27 | CCN1CCN(CCCNC(=O)Cn2c(-c3cccs3)cc3cc(F)ccc32)CC1 | inactive: 126%
28 | Cc1ccc(C)c(Nc2nn3c(=O)c4cc5c(cc4nc3s2)OCO5)c1 | inactive: 61%
29 | CCc1ccc(NC(=O)CSc2nc(=O)n(Cc3ccncc3)c3c2CCC3)cc1 | inactive: 80%
30 | O=C(Oc1ccc(Cl)cc1)c1ccc2snnc2c1 | inactive: 105%
31 | O=C(O)c1cnc2ccccn2c1=O | inactive: 109%
32 | O=c1c(S(=O)(=O)c2ccccc2)cn(Cc2cccc(F)c2)c2cc(N3CCCC3)c(F)cc12 | inactive: 126%
33 | COc1ccccc1N1CCN(S(=O)(=O)CCNC(=O)Cc2ccc(Cl)cc2)CC1 | inactive: 82%
34 | CCCCN(C)CCNC(=O)CN1C(=O)CSc2ccc(S(=O)(=O)N3CCCCC3)cc21 | inactive: 132%
35 | CCOC(=O)N1CCc2c(sc(NCc3cccs3)c2C(=O)Nc2ccc(OC)cc2OC)C1 | inactive: 72%
36 | COc1ccc(-c2nnn(CC(=O)Nc3sc4c(c3C#N)CCCC4)n2)cc1 | inactive: 109%
37 | Cn1c(=O)c2c(nc(N3CCOCC3)n2Cc2ccccc2Cl)n(C)c1=O | inactive: 68%
38 | CCC(C)NC(=O)c1cnn2c(C)cc(C)nc12 (stereo unspecified) | inactive: 89%
39 | COCCCNC(=O)CCCn1c(=O)c2ccccc2n(CC(=O)Nc2ccc(C)cc2Cl)c1=O | inactive: 85%
40 | O=C(NCCc1ccc(Cl)cc1)c1nnc(Cc2ccc(Cl)cc2Cl)o1 | inactive: 85%
41 | CC(=O)Nc1ccc(N2CCN(Cc3ccccc3)CC2)cc1 | inactive: 106%
42 | CC(C)Cn1c(-c2ccccc2Cl)nc2ccccc21 | active: 26%
43 | N/C(=N\OC(=O)Cc1ccccc1)c1ccncc1 | inactive: 110%
44 | O=C(CSc1nnc(NC(=O)C2CC2)s1)Nc1ccccc1F | inactive: 108%
45 | CCOc1ccc(-c2c(C)nn3c(C)c(C(=O)NCCN(C)C)cnc23)cc1OCC | inactive: 87%
46 | CC(C)Cn1c(CN2CCN(c3cccc(Cl)c3)CC2)nc2c1c(=O)[nH]c(=O)n2C | inactive: 137%

Row | SMILES | survival
47 | O=C(CSc1nncn2c1cc1occc12)Nc1ccc(F)c(Cl)c1 | inactive: 61%
48 | COc1ccc(N(CC(=O)NCCc2ccc(C)cc2)S(=O)(=O)c2c(C)nn(C)c2C)cc1 | inactive: 73%
49 | O=C(NCCc1ccc(Cl)cc1)c1ccc2nc(CCc3ccccc3)oc2c1 | inactive: 59%
50 | COc1cc(OC)cc(-c2nnc(SCC(=O)c3ccc([N+](=O)[O-])cc3)o2)c1 | inactive: 78%
51 | Cc1nc(S(=O)(=O)N2CCN(c3cccc(Cl)c3)CC2)cn1C | inactive: 124%
52 | Oc1ccc(Br)cc1C1CC(c2ccccc2)=NC(c2ccco2)N1 (stereo unspecified) | active: 1%
53 | COc1cc(Nc2nn(-c3ccc(OC(F)(F)F)cc3)nc2C(C)=O)cc(OC)c1 | inactive: 89%
54 | CCOC(=O)c1cc(-c2ccc(OC)cc2)n(CCC(=O)Nc2cccc(C)c2C)c1C | inactive: 74%
55 | CCCCc1nn2c(=O)cc(COC(=O)c3ccc4c(c3)OCO4)nc2s1 | inactive: 81%
56 | O=C(CCCn1c(=O)[nH]c2ccc(Br)cc2c1=O)N1CCN(c2cccc(Cl)c2)CC1 | active: 6%
57 | COc1cc(OC)cc(-n2c(=O)c3ccccc3n(Cc3ccccc3C#N)c2=O)c1 | inactive: 141%
58 | CCOC(=O)c1ccc2c(c1)N(CC#N)C(=O)C(C)(C)O2 | inactive: 102%
59 | COc1ccccc1C(=O)NCC(c1ccc(N(C)C)cc1)N1CCc2ccccc21 (stereo unspecified) | inactive: 64%
60 | Nc1nc(SCc2ccccc2)ns1 | inactive: 96%
61 | Cc1ccc(NCc2nnc(SCc3cc(C)ccc3C)o2)c(C)c1 | inactive: 110%
62 | CCC(=O)Nc1cc(-c2cn3cccnc3n2)ccc1OC | inactive: 112%
63 | CCOc1ccc(-c2cn3c(n2)sc2cc(C(=O)NCCCN4CCCCC4)ccc23)cc1 | active: -1%
64 | CC1=C(C(=O)Nc2ccccc2)C(C(C)C)n2nc(SCc3ccccc3C)nc2N1 (stereo unspecified) | inactive: 99%
65 | COc1cc(NC(=O)c2ccc(-c3nc(CSc4ccccc4)c(C)o3)cc2)cc(OC)c1 | inactive: 111%
66 | CCc1ccc(NC(=O)Cn2nc(C(F)(F)F)c3c2CCCC3)cc1 | inactive: 95%
67 | COc1ccc(N(CC(C)C)S(=O)(=O)c2nnc(NC(=O)c3ccco3)s2)cc1 | inactive: 59%
68 | CCOC(=O)C(C)(C)Sc1nnc(COc2ccccc2)n1CC | inactive: 100%
69 | O=C(Cn1ncn2cccc2c1=O)NCc1cccc(Br)c1 | inactive: 88%

Row | SMILES | survival
70 | COc1ccccc1Cc1nc2ccccc2nc1SCC(=O)Nc1c(C)cccc1C | inactive: 79%
71 | CCCc1nc(SCC(=O)N(CC)CC)c2ccccc2n1 | inactive: 105%
72 | Cc1c(Cl)cccc1NC(=O)Cn1c(=O)cc(C)c2c(C)nn(-c3cccc(F)c3)c21 | inactive: 74%
73 | COc1ccc(NC(=O)c2cc(-c3ccc(F)cc3)no2)cc1OC | inactive: 91%
74 | CCCNC(=O)Cn1nc(-c2ccc(C)cc2)c2cnc3ccc(CC)cc3c21 | active: 10%
75 | Cc1cc(NC(=O)c2ccco2)cc(-c2nc3ccccc3o2)c1O | inactive: 80%
76 | CN(C)CCN(Cc1ccccc1)S(=O)(=O)c1csc(C(N)=O)c1 | inactive: 71%
77 | Cc1ccc(S(=O)(=O)n2c(CN3CCCC(C)C3)nc3ccccc32)cc1 (stereo unspecified) | inactive: 108%
78 | CCN(C(=O)CCS(=O)(=O)c1cc2c(cc1C)NC(=O)CO2)c1cccc(C)c1 | inactive: 80%
79 | CCn1c(C)c(C)c2cc(C(=O)N3CCN(c4ccccc4)CC3)ccc21 | inactive: 67%
80 | COc1ccc(CCNC(=O)c2ccc3c(c2)nc2n3CCCCC2)cc1OC | inactive: 84%
81 | CCCn1cnc2cc(NC(=O)c3cc(OC)c(OC)c(OC)c3)ccc21 | inactive: 76%
82 | CCc1ccc(-c2nc(CS(=O)CC(=O)NCc3ccc(F)cc3)c(C)o2)cc1 (stereo unspecified) | inactive: 73%
83 | COCCNC(=S)N1CCC(c2nc(-c3ccc(N(C)C)cc3)no2)CC1 | inactive: 107%
84 | Cc1ccc(Cl)cc1NC(=O)CN1C(=O)c2ccccc2Sc2ncccc21 | inactive: 86%
85 | Cc1ccc(CNS(=O)(=O)c2c(C)nc3sc(C)cn3c2=O)cc1 | inactive: 108%
86 | Cc1cccc(N2CCN(Cc3nnc(-c4cccc(Br)c4)o3)CC2)c1C | inactive: 83%
87 | CCCOC(=O)c1cccc(NC(=O)CSc2nnc3cc(C)c4ccccc4n23)c1 | inactive: 120%
88 | CC(=O)c1ccc(NC(=O)c2nc(-c3ccccc3)n(-c3ccc(C)cc3)n2)cc1 | inactive: 41%
89 | Clc1ccc2nc(-c3ccc(N4CCOCC4)cc3)c(Nc3ccccc3)n2c1 | inactive: 63%
90 | COc1ccccc1NC(=O)Cn1c(=O)oc2cc(S(=O)(=O)NCc3ccccc3)ccc21 | inactive: 102%
91 | O=C(NCc1cccc(Cl)c1)C1CCCN(c2nn3cc(-c4ccc(F)cc4)nc3s2)C1 (stereo unspecified) | inactive: 85%
